# In the BET-seq Pho4 binding data (Le et al. 2018):
# The list shows a part of the results. Values were computed here from the reads of four pooled replicates and scatter widely.
# Biological target: T1, Pho4 (S. cerevisiae) (UniProt P07270)
# T1 sequence: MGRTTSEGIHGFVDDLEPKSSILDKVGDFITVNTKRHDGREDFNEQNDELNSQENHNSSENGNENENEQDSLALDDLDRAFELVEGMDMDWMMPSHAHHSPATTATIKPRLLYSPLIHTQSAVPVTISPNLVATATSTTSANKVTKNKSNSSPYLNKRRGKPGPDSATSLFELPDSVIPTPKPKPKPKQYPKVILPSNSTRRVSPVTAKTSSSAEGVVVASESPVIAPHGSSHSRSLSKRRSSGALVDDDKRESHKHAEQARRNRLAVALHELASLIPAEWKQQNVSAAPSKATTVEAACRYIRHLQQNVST
# Test: relative binding free energy (BET-seq); higher = weaker binding
# Settings: reference: library average
row,Sequence,relative binding free energy
1,GTCATCACGTGTAGAG,0.26 kcal/mol
2,GTAAGCACGTGGTACG,-0.2 kcal/mol
3,GTGGGCACGTGAGCAT,0.05 kcal/mol
4,GCGTTCACGTGAGGTT,0.4 kcal/mol
5,TTGAGCACGTGTGAGA,0.02 kcal/mol
6,TTGATCACGTGGCATT,0 kcal/mol
7,TTCTGCACGTGGTTGT,-0.04 kcal/mol
8,AATAACACGTGTGCTG,0.04 kcal/mol
9,ATTATCACGTGATGTT,0.33 kcal/mol
10,GTGTACACGTGTCGTT,0.06 kcal/mol
11,AGAAGCACGTGAGGGT,0.08 kcal/mol
12,CGGTACACGTGGGATT,-0.01 kcal/mol
13,CTAGTCACGTGGTAGT,0.03 kcal/mol
14,AACTTCACGTGTGTTG,0.27 kcal/mol
15,AATTTCACGTGGGATA,0.15 kcal/mol
16,ATTAGCACGTGTGATA,-0.01 kcal/mol
17,AATCTCACGTGGGTAG,0.18 kcal/mol
18,GTGATCACGTGGCTGG,0.11 kcal/mol
19,TTTCACACGTGTTAGT,0.03 kcal/mol
20,AGGGACACGTGGTATA,-0.08 kcal/mol
21,GTGAGCACGTGGGTTA,-0.11 kcal/mol
22,AAAATCACGTGTTATT,0.07 kcal/mol
23,ATTTGCACGTGATGTT,0.04 kcal/mol
24,GTTACCACGTGTTGGC,0.13 kcal/mol
25,ATGATCACGTGTAAAG,0.17 kcal/mol

row,Sequence,relative binding free energy
1,AGGGTCACGTGAGTTT,0.21 kcal/mol
2,TGTCTCACGTGGGAGC,0.19 kcal/mol
3,TAGTTCACGTGTACTG,0.34 kcal/mol
4,CGGGTCACGTGGAAAG,0.24 kcal/mol
5,CGGGTCACGTGTGCTA,0.15 kcal/mol
6,TGCGTCACGTGATGAG,0.31 kcal/mol
7,TTGAGCACGTGGGGAA,-0.09 kcal/mol
8,ATCTGCACGTGGTAGG,-0.15 kcal/mol
9,GTGAACACGTGTGAGC,0.22 kcal/mol
10,ATGCTCACGTGGTTTG,0.16 kcal/mol
11,CGTTGCACGTGTGTGG,0.03 kcal/mol
12,TAGGTCACGTGAGTGT,0.28 kcal/mol
13,ATAGTCACGTGGTAGT,-0.03 kcal/mol
14,GGCGTCACGTGAGTTG,0.23 kcal/mol
15,TGGCGCACGTGATGAT,0.06 kcal/mol
16,TCGTGCACGTGTATTG,-0.08 kcal/mol
17,GATGTCACGTGGTGCA,0.06 kcal/mol
18,TCTCTCACGTGTTTTT,0.25 kcal/mol
19,CGGGGCACGTGGGGCG,-0.21 kcal/mol
20,AGAGGCACGTGGGCAG,-0.33 kcal/mol
21,TTTGGCACGTGGTAAC,-0.06 kcal/mol
22,TTTCACACGTGGTGGC,0.07 kcal/mol
23,GTAGGCACGTGAGTAT,0.28 kcal/mol
24,GTGGACACGTGTGTTT,0.09 kcal/mol
25,TCGTACACGTGCTGTG,0.09 kcal/mol

row,Sequence,relative binding free energy
1,ATCTACACGTGTAGGG,0.1 kcal/mol
2,GTTGGCACGTGTTGTC,0.13 kcal/mol
3,ATTTGCACGTGGTTAG,-0.02 kcal/mol
4,GGACGCACGTGGTATG,-0.2 kcal/mol
5,ATTGGCACGTGGTGGC,-0.09 kcal/mol
6,TGTAGCACGTGCGTAT,-0.15 kcal/mol
7,TGTTTCACGTGCGTGG,0.12 kcal/mol
8,GTGTGCACGTGGTCCG,-0.2 kcal/mol
9,TGAGGCACGTGGTGTA,-0.11 kcal/mol
10,TGAGTCACGTGCTGGT,0.1 kcal/mol
11,GAAGACACGTGTAGTT,0.24 kcal/mol
12,TTAAACACGTGTCTGT,-0.06 kcal/mol
13,TTGCTCACGTGTTATA,0.03 kcal/mol
14,GACAACACGTGGGTGG,-0.07 kcal/mol
15,TGGATCACGTGAGTGC,0.34 kcal/mol
16,GATTACACGTGGGTTA,-0.03 kcal/mol
17,TATAACACGTGGTTAG,-0.11 kcal/mol
18,GTAGTCACGTGTTGTA,0.17 kcal/mol
19,GGCGTCACGTGTGAGA,0.23 kcal/mol
20,GGTCTCACGTGTTTTT,0.38 kcal/mol
21,TTTCGCACGTGGGAGG,-0.11 kcal/mol
22,TTCGTCACGTGGTGTC,0.12 kcal/mol
23,TTGTCCACGTGTGCGT,0.04 kcal/mol
24,TTTATCACGTGATATG,0.27 kcal/mol
25,TGAAGCACGTGTTAGG,-0.12 kcal/mol

row,Sequence,relative binding free energy
1,CGTCTCACGTGTGGTG,0.11 kcal/mol
2,CGTTTCACGTGCGATA,0.41 kcal/mol
3,ACGAACACGTGGTGGG,-0.12 kcal/mol
4,CGAAGCACGTGAGTGG,0.12 kcal/mol
5,TTGGTCACGTGACGAT,0.26 kcal/mol
6,ATTCGCACGTGGGTGG,-0.3 kcal/mol
7,ATTTTCACGTGCGTCT,0.41 kcal/mol
8,TTTGTCACGTGCATTT,0.12 kcal/mol
9,TTGGACACGTGCTGAT,0.01 kcal/mol
10,TCTGGCACGTGTGCTT,0.01 kcal/mol
11,GGGATCACGTGTAGTC,0.13 kcal/mol
12,TAGATCACGTGGGGTT,0.06 kcal/mol
13,GGGGGCACGTGGGCCC,-0.21 kcal/mol
14,TGGACCACGTGTCTTG,0.08 kcal/mol
15,TGTCACACGTGTTGGG,0 kcal/mol
16,GGCAGCACGTGGCGTT,-0.06 kcal/mol
17,GGCTTCACGTGAAGGG,0.45 kcal/mol
18,CCTGGCACGTGTGGGC,0 kcal/mol
19,TGATTCACGTGAAGCG,0.4 kcal/mol
20,CGTAGCACGTGTAGTA,-0.07 kcal/mol
21,ATGAACACGTGAGAGG,0.24 kcal/mol
22,TGATGCACGTGAGGGG,0.29 kcal/mol
23,TTAGCCACGTGGTGTG,-0.19 kcal/mol
24,TGTAGCACGTGTAAGA,0.06 kcal/mol
25,TGAATCACGTGTGTTG,0.1 kcal/mol

row,Sequence,relative binding free energy
1,GTTATCACGTGTTTGG,0.23 kcal/mol
2,GGAGGCACGTGAAGCT,0.17 kcal/mol
3,ATGACCACGTGTATGT,0.04 kcal/mol
4,TTGGACACGTGTTATG,-0.01 kcal/mol
5,TGACACACGTGAGTGT,0.09 kcal/mol
6,AGGGCCACGTGTAGTT,0.09 kcal/mol
7,GATGTCACGTGGGGGG,0.14 kcal/mol
8,CGCTGCACGTGGTTGT,-0.02 kcal/mol
9,ATAGTCACGTGAGAAG,0.25 kcal/mol
10,CTGATCACGTGGGGTT,0.04 kcal/mol
11,GGTTCCACGTGGTGTC,0.04 kcal/mol
12,GTAGGCACGTGTTGCA,-0.1 kcal/mol
13,GATTACACGTGGAGAT,0.18 kcal/mol
14,ACAGGCACGTGAGGGA,0.13 kcal/mol
15,TTAATCACGTGTTACT,0.13 kcal/mol
16,TACGTCACGTGATGTG,0.11 kcal/mol
17,GTGTACACGTGGGCAG,-0.07 kcal/mol
18,TTTTTCACGTGGTACT,0.12 kcal/mol
19,TTGGGCACGTGTACAG,-0.25 kcal/mol
20,GGGTTCACGTGGTGGC,0.34 kcal/mol
21,TGGGGCACGTGGCGTC,-0.3 kcal/mol
22,GGATCCACGTGGGGTT,0.08 kcal/mol
23,GCGGACACGTGAGGGT,0.39 kcal/mol
24,AGAGTCACGTGGTGCA,-0.07 kcal/mol
25,GTGTTCACGTGTGGCG,0.29 kcal/mol

row,Sequence,relative binding free energy
1,CTTATCACGTGGTGAT,-0.03 kcal/mol
2,TTGCTCACGTGAAGTA,0.42 kcal/mol
3,GCTGTCACGTGGGGTT,0.09 kcal/mol
4,TGGTTCACGTGCTGTA,0.23 kcal/mol
5,GCGGGCACGTGGTTAG,-0.15 kcal/mol
6,TTACGCACGTGTAGCG,0.03 kcal/mol
7,GATTGCACGTGTTGTA,0.07 kcal/mol
8,CCTGTCACGTGGAGTT,0.22 kcal/mol
9,GTGGGCACGTGGAAAT,0.16 kcal/mol
10,AGCTTCACGTGGGCGT,0.08 kcal/mol
11,ATTTGCACGTGGAAAA,0.13 kcal/mol
12,TTAAGCACGTGTATGT,-0.03 kcal/mol
13,AATGTCACGTGAGAGT,0.29 kcal/mol
14,GGAATCACGTGGGTGT,0.09 kcal/mol
15,GGGAGCACGTGGTGCC,-0.06 kcal/mol
16,TGGTGCACGTGTGGGA,0.06 kcal/mol
17,GTAGTCACGTGGGGAC,0.2 kcal/mol
18,CACTGCACGTGAGGGG,0.09 kcal/mol
19,ACTTTCACGTGGGTGT,0.16 kcal/mol
20,CTTGTCACGTGGAGGA,0 kcal/mol
21,CGAGGCACGTGAAAGT,0.25 kcal/mol
